# Results are given in words; binding and its absence hold for the method and conditions named. For some assays here: In cells and extracts the contact can be indirect. Some results given as binding are weak or reduced against the parent protein; the word gives no strength. Sequences can lack the tags named with a protein.
# Protein sequences, listed by entry. Tags and fused reporters are not part of them.
# UniProt Q9BXW9: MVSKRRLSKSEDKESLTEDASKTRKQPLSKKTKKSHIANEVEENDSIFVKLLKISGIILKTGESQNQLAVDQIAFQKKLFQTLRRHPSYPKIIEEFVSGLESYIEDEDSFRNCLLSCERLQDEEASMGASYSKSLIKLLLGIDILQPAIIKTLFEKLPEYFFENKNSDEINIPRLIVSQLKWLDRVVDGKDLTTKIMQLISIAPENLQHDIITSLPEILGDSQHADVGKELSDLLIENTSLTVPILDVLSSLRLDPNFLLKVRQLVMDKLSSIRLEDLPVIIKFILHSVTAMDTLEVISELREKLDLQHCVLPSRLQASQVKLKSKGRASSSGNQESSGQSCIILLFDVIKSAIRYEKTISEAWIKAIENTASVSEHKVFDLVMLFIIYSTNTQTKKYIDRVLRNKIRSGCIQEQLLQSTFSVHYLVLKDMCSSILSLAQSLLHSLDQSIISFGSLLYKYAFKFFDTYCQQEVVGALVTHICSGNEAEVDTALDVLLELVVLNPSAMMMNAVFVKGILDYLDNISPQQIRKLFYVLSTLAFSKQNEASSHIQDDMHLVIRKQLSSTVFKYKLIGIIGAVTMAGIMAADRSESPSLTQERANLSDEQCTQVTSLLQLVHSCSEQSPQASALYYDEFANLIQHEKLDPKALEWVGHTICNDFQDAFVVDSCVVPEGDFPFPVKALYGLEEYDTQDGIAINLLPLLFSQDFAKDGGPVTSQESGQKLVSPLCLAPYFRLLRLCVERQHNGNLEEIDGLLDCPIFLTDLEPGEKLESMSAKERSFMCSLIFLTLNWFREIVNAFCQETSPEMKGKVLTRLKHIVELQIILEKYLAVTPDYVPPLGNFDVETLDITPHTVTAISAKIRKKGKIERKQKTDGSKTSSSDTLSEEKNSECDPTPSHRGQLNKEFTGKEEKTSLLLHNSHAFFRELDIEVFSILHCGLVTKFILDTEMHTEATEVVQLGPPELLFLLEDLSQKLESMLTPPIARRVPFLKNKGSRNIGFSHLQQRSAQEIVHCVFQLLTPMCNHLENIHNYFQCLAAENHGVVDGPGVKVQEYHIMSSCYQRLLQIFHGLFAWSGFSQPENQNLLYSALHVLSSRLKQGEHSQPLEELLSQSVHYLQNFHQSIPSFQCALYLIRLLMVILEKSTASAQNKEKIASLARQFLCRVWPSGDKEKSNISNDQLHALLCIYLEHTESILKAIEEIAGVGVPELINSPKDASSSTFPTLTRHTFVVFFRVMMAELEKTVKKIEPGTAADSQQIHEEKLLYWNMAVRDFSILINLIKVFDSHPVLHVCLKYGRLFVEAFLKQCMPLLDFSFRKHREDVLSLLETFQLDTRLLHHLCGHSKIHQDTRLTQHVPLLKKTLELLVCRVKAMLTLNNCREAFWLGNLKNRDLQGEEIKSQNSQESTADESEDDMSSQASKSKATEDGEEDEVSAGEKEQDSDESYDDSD
# How the values were obtained:
# [1] = target: T1, 6xHis-UHRF1 purified from Sf9 cells (human) (UniProt Q96T88); assay: pull-down; in vitro binding assay; 6xHis-UHRF1 purified using NTA-agarose, immunoblotting for FANCD2; both purified
# T1 sequence: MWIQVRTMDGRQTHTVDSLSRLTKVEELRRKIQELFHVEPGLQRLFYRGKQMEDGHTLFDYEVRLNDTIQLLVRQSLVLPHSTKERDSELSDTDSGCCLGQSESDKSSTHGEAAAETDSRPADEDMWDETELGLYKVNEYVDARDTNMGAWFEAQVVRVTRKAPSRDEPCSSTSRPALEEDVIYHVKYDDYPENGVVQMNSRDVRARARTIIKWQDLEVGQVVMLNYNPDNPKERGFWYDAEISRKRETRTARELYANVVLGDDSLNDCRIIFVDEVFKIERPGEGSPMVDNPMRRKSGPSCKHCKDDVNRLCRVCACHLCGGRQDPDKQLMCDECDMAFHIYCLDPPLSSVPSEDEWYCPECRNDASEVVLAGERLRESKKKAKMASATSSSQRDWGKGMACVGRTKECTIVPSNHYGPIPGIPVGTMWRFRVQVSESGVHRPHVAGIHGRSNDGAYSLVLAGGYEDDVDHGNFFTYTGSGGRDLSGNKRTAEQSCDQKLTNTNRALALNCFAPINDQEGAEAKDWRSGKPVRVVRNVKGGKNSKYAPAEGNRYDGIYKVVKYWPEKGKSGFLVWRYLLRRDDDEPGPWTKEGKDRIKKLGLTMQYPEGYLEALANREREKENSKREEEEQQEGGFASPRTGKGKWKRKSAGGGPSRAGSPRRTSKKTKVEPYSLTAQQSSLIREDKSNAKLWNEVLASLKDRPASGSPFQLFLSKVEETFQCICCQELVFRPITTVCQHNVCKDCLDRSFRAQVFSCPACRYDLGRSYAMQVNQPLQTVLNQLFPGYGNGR
# [2] = target: T2, Flag-UHRF1 expressed in HeLa.shUHRF1 cells (human) (UniProt Q96T88); assay: co-IP; cells treated with TMP/UVA, 1 hour recovery; lysis with Benzonase and the cross-linker DSP (quenched with Tris), extraction in 300mM KCl; M2 anti-Flag agarose, elution with Flag peptide; immunoblotting
# T2 sequence: T1 sequence
binding [1],binding [2],Substance
binds,,Flag-HA-FANCD2 purified from Sf9 cells (from UniProt Q9BXW9 1-1451)
,binds,endogenous FANCD2 (HeLa) (from UniProt Q9BXW9 1-1451)
